The list shows a part of the results. At the low end of the ranking, values are background and their order means little.

Experimental findings from PMC6212790 are described below.

The target in the test is T1, GST-Rok-C97-191 (UniProt O34857).
T1 sequence: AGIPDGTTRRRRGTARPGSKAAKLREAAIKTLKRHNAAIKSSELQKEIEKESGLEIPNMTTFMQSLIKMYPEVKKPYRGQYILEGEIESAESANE
In words: protein binding microarray.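 Note: rank score from −0.5 (least bound) to 0.5 (best bound).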 The conditions noted are these: Rok is a gene silencer of Bacillus subtilis; high values mean tight binding; most listed sequences are background and not binding sites; double strand, one strand shown.
For the sequence CAAAGTTG, the binding signal was -0.153 E-score.

Consider GAAGAAAA, for which the binding signal is -0.109 E-score.

On to CGGCAATC, for which the binding signal is -0.0976 E-score.

On to TCGCGTAA, for which the binding signal stood at 0.0815 E-score.

As for AAGTGATT, the binding signal is -0.0378 E-score.

Regarding GTTCGCTA, the binding signal came to 0.172 E-score.

Sequence CACGTGAC showed a binding signal of -0.221 E-score.

Sequence ATCAGCAG gave a binding signal of -0.0269 E-score.

The sequence AGCATACT gave a binding signal of 0.12 E-score.

In turn, GATCCTTA had a binding signal of -0.132 E-score.

Consider TGTTTAAA, for which the binding signal was 0.0959 E-score.

The sequence ACAAATTG showed a binding signal of 0.0672 E-score.

For AACGGAGC, the binding signal is -0.0688 E-score.

CAGTGCGC registered a binding signal of -0.0706 E-score.

As for GGGGAAAA, the binding signal is -0.0211 E-score.

In the case of AACAAACA, the binding signal was found to be 0.0599 E-score.

For the sequence AGTCGGCA, the binding signal is -0.0581 E-score.

In turn, AGAAGCAC gave a binding signal of -0.0716 E-score.

The sequence CCTACGCC displayed a binding signal of -0.184 E-score.

As for AGACACAG, the binding signal turned out to be 0.00528 E-score.

Sequence ACAAGAGT displayed a binding signal of 0.0653 E-score.

GGTCGCAC returned a binding signal of -0.115 E-score.

For the sequence GACGCAAA, the binding signal was -0.0986 E-score.

CAGGAAGG had a binding signal of -0.0787 E-score.

The sequence AAAGCTCG yielded a binding signal of -0.166 E-score.

In turn, AGTAAAAG had a binding signal of 0.267 E-score.

GCAGCTTA displayed a binding signal of -0.11 E-score.

As to AGGGATCA, the binding signal was -0.157 E-score.

Regarding CAGTTAGA, the binding signal is -0.0111 E-score.

For the sequence AATATTTG, the binding signal is 0.194 E-score.

In turn, AGTGCTTG returned a binding signal of -0.0883 E-score.

GTACGTAA displayed a binding signal of 0.0489 E-score.

For CCGGGCAA, the binding signal was -0.224 E-score.

The sequence ATGACCAT had a binding signal of -0.14 E-score.

Take CCCTCCAC: the binding signal was -0.29 E-score.

CGGTGGTC gave a binding signal of -0.205 E-score.

As for CGTTCGAG, the binding signal is -0.113 E-score.

For the sequence GTATACTA, the binding signal was found to be 0.338 E-score.

The sequence GTCTCGAA came in with a binding signal of -0.0363 E-score.

As to ACAGCTAA, the binding signal amounted to 0.219 E-score.

Sequence ACGCAGAG returned a binding signal of -0.188 E-score.

As to ATCAATTA, the binding signal came to 0.213 E-score.

Sequence CCTGGCCA yielded a binding signal of -0.292 E-score.

In turn, CTTGTCTC had a binding signal of -0.0999 E-score.

CGTCTCAG: the binding signal is -0.15 E-score.

For the sequence GTGAATGA, the binding signal is -0.105 E-score.

As to ATCATTAC, the binding signal was 0.254 E-score.

As for ACGGGGGC, the binding signal is -0.357 E-score.

With CGAGTTAC, the binding signal was determined as 0.13 E-score.

With AACTGACG, the binding signal was -0.0524 E-score.

With CCTGACCG, the binding signal is -0.265 E-score.

For ATGGCACG, the binding signal turned out to be 0.00487 E-score.

Take CCCGACTA: the binding signal is -0.126 E-score.

CGCCTTTC yielded a binding signal of -0.327 E-score.

For the sequence ACCCGAAG, the binding signal was -0.266 E-score.

As to GACCATAA, the binding signal amounted to 0.0376 E-score.

CGTCTTTC registered a binding signal of -0.0563 E-score.

As for ACATGTCC, the binding signal is 0.0978 E-score.

Sequence CAGATACC gave a binding signal of -0.0611 E-score.

ACGAAAGG displayed a binding signal of -0.0608 E-score.

Take TGTCCCAA: the binding signal is -0.11 E-score.

Turning to AAGCGATT, the binding signal worked out at 0.194 E-score.

As for ACATAACC, the binding signal was determined as 0.111 E-score.

The sequence CAGCCATA had a binding signal of 0.068 E-score.

In turn, AACCCCAG displayed a binding signal of -0.261 E-score.

In turn, AACGAGAT had a binding signal of 0.0637 E-score.

Turning to CAAGGTAC, the binding signal was -0.0717 E-score.

Sequence TAGATTCA returned a binding signal of 0.282 E-score.

In turn, GAGTACGC returned a binding signal of -0.152 E-score.

CAGACAAG registered a binding signal of -0.143 E-score.

Regarding ATGAAGGG, the binding signal was -0.0907 E-score.

Take CAGGGAGG: the binding signal was -0.279 E-score.

In the case of AAACTCTC, the binding signal amounted to 0.0812 E-score.

The sequence AACCGAAA registered a binding signal of 0.0957 E-score.

Take CTTCGGCA: the binding signal was -0.145 E-score.

The sequence ATCGTTCG gave a binding signal of -0.00737 E-score.

Sequence GCAATAAC returned a binding signal of -0.174 E-score.

GCAGCGAC came in with a binding signal of -0.101 E-score.

CGCGAGCG gave a binding signal of -0.215 E-score.

In turn, GCCAGCCA had a binding signal of -0.324 E-score.

GATTTAAC came in with a binding signal of 0.265 E-score.

As to AGCGGCCT, the binding signal is -0.118 E-score.

Sequence CCCGCCCG gave a binding signal of -0.29 E-score.

Regarding CACGGACG, the binding signal is -0.11 E-score.

CGTCTGTC came in with a binding signal of 0.00209 E-score.

ACCAGCCG gave a binding signal of 0.0915 E-score.

On to CTGCATTC, for which the binding signal is -0.0615 E-score.

Take ACATGCCC: the binding signal is -0.0671 E-score.

As for GTGTGCTA, the binding signal was determined as 0.0695 E-score.

On to AGGCAACA, for which the binding signal was -0.183 E-score.

The sequence CTTTATCA had a binding signal of -0.0451 E-score.

In turn, GCCAACGC registered a binding signal of -0.288 E-score.

GATGCCCA yielded a binding signal of -0.0796 E-score.

With TCTGGGAA, the binding signal was 0.0446 E-score.

Turning to CTAACGCC, the binding signal was -0.0885 E-score.

The sequence CAGCGGGA displayed a binding signal of -0.188 E-score.

Consider ATTAACAG, for which the binding signal stood at 0.069 E-score.

On to TAGCTAAA, for which the binding signal is 0.239 E-score.

TTAGACAA registered a binding signal of 0.0852 E-score.

In turn, CGTATCTA gave a binding signal of 0.312 E-score.

AAATTCAA: the binding signal came to 0.204 E-score.

Turning to ACGGAAAT, the binding signal was determined as 0.154 E-score.

Regarding CCAAAAGG, the binding signal was -0.224 E-score.

GAGAACGA gave a binding signal of -0.104 E-score.

Turning to GAGCGCGA, the binding signal was -0.0265 E-score.

AAGCTCAA had a binding signal of 0.0333 E-score.

GAGTTAAC yielded a binding signal of 0.116 E-score.

As for TAATGCGA, the binding signal amounted to 0.148 E-score.

With AGCGATAT, the binding signal was found to be 0.273 E-score.

The sequence CATGGACG came in with a binding signal of -0.221 E-score.

With GTGGCCCA, the binding signal was -0.195 E-score.

Sequence CCTGTCCG showed a binding signal of -0.22 E-score.

In turn, CGTTGAGA gave a binding signal of -0.0429 E-score.

Consider AAAACGAG, for which the binding signal was -0.0181 E-score.

With CGAACTTA, the binding signal was -0.0294 E-score.

As for AATATTCG, the binding signal is 0.307 E-score.

Consider CTATGAAA, for which the binding signal worked out at 0.124 E-score.

AAAAATTA returned a binding signal of 0.268 E-score.

With CATCAGGG, the binding signal is -0.12 E-score.

The sequence GAAAACTA yielded a binding signal of 0.336 E-score.

TAATCTGA: the binding signal is -0.0847 E-score.

Regarding GGGCCGAC, the binding signal is -0.276 E-score.

CCTCAAGA registered a binding signal of 0.0377 E-score.

In turn, AATAGATG returned a binding signal of 0.267 E-score.

On to AAACAGGC, for which the binding signal was -0.0568 E-score.

In turn, AGTTTTGG registered a binding signal of 0.036 E-score.

For the sequence GCCTTCTA, the binding signal is -0.171 E-score.

On to CACTGGGA, for which the binding signal is -0.187 E-score.

In turn, ACAAATCT showed a binding signal of 0.0692 E-score.

ACTACCAA displayed a binding signal of 0.257 E-score.

GCCTGTTA displayed a binding signal of -0.153 E-score.

The sequence GGACAGTA registered a binding signal of -0.00767 E-score.

CTTGGGCA displayed a binding signal of -0.162 E-score.

With TCTGGTCA, the binding signal is -0.11 E-score.

As for AATCCGTG, the binding signal is -0.0668 E-score.

Take ATTCACTG: the binding signal is -0.0497 E-score.

In the case of AAGTGTCC, the binding signal was -0.122 E-score.

Regarding CTCCGGTA, the binding signal came out at 0.0894 E-score.

CCTAGTTA had a binding signal of 0.168 E-score.

In turn, AGACGGAC had a binding signal of -0.0383 E-score.

CTAGCCCC returned a binding signal of -0.261 E-score.

For AAGGCCTA, the binding signal is -0.161 E-score.

Consider CCCAGAGG, for which the binding signal is -0.0643 E-score.

CCCCACTA registered a binding signal of -0.224 E-score.

For CATACCAG, the binding signal was 0.0238 E-score.

In turn, CCCTGCAA showed a binding signal of -0.168 E-score.

Consider CTTGGCAC, for which the binding signal was -0.263 E-score.

ACTACACA: the binding signal worked out at 0.223 E-score.

The sequence ATAAGCAC had a binding signal of 0.105 E-score.

With ACCTTGGG, the binding signal is -0.226 E-score.

Sequence ATCATAAT came in with a binding signal of 0.106 E-score.

In the case of AGACGTAG, the binding signal was -0.0745 E-score.

TGCGCGCA: the binding signal stood at 0.0584 E-score.

Take ATTCCGCA: the binding signal was -0.0237 E-score.

Turning to GCGTGGGA, the binding signal is -0.0939 E-score.

ATCATCGA showed a binding signal of -0.0995 E-score.

For the sequence CGACATCC, the binding signal is -0.171 E-score.

GGGCGGTA displayed a binding signal of 0.052 E-score.

As for AGGCGATA, the binding signal is 0.0121 E-score.

AGTTCATA showed a binding signal of 0.0168 E-score.

AGCACACC yielded a binding signal of -0.172 E-score.

The sequence GTTCTTCA returned a binding signal of -0.0142 E-score.

The sequence AAGACTAC displayed a binding signal of 0.125 E-score.

In turn, AAAGGTCG displayed a binding signal of -0.167 E-score.

The sequence AAAGGTGT displayed a binding signal of -0.109 E-score.

GCCAGCGC came in with a binding signal of -0.072 E-score.

In turn, CTGTTGGA gave a binding signal of -0.2 E-score.

Consider AACACTCA, for which the binding signal is -0.147 E-score.

As for CTCCTCAA, the binding signal is -0.0821 E-score.

TGCACCCA yielded a binding signal of -0.124 E-score.

As to TGCCTAAA, the binding signal is -0.0357 E-score.

GTGCCAGA: the binding signal is -0.212 E-score.
